These are yes or no findings as the source states them, for the method shown. In cells and extracts the contact can be indirect. Some results given as binding are weak or reduced against the parent protein; the word gives no strength. Tags and fused reporters may be left off the sequences shown.

By UniProt entry, the sequences of proteins in these tests, tags left out.
UniProt Q93009: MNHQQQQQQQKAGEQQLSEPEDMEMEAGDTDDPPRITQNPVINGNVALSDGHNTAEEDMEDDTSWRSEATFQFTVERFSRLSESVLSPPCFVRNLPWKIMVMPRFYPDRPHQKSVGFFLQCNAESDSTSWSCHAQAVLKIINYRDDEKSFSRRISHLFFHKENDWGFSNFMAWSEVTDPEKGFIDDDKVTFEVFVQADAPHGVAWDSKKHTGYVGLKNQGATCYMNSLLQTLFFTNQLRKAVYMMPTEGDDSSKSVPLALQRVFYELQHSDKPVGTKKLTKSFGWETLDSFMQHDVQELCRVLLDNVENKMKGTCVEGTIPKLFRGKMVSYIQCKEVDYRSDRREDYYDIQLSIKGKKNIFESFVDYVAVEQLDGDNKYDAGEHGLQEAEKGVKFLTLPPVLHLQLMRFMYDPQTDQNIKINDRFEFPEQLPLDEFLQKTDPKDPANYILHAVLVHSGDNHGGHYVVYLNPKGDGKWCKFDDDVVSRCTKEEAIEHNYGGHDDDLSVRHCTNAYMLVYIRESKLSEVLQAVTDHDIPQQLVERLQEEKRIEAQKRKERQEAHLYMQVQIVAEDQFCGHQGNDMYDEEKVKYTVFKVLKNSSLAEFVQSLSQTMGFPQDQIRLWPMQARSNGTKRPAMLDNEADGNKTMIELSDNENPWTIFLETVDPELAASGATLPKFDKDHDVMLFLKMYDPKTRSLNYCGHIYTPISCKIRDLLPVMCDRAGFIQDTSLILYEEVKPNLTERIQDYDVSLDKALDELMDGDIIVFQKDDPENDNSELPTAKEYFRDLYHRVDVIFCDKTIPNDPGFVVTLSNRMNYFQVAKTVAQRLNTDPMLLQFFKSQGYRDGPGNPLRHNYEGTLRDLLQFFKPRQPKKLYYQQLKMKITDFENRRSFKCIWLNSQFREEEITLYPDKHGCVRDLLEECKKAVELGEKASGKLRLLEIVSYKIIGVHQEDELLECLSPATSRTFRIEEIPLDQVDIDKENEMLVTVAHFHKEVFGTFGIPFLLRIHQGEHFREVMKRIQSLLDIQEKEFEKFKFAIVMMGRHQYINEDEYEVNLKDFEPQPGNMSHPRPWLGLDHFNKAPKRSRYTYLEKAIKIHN

Assay [1] has as its target T1, StrepII-FLAG-tagged wild-type FBXO38 (SF-FBXO38 WT), transfected in HEK293T cells (human) (UniProt Q6PIJ6).
T1 sequence: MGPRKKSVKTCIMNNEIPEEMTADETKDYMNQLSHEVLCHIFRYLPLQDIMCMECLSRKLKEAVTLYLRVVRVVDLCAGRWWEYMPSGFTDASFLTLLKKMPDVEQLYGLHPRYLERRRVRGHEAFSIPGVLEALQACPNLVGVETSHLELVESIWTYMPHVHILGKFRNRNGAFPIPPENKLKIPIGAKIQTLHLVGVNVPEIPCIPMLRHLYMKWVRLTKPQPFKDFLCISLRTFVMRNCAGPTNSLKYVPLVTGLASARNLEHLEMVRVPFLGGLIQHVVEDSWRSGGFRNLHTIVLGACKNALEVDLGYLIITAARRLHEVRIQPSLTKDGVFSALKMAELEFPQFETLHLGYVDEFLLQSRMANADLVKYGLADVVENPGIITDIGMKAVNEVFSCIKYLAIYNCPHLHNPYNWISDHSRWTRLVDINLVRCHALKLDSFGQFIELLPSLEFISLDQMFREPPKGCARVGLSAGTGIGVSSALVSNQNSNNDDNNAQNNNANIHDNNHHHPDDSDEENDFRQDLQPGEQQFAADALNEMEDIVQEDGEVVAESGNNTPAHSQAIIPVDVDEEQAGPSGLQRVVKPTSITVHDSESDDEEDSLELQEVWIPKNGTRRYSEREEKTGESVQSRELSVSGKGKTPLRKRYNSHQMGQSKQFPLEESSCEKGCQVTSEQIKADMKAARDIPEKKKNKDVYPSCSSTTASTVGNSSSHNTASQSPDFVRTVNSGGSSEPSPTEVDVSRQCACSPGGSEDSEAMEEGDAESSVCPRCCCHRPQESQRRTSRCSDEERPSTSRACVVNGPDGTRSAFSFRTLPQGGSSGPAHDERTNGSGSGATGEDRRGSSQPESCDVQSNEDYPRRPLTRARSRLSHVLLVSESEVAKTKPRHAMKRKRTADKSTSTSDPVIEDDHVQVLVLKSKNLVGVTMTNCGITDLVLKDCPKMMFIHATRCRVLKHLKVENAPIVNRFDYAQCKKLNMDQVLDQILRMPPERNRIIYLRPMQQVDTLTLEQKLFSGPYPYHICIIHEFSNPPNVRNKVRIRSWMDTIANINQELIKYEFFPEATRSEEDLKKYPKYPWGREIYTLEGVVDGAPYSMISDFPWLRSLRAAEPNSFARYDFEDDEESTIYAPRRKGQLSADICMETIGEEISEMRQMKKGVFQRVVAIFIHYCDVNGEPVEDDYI
The experiment in a line: co-IP; SF-tagged bait affinity-purified on Strep-Tactin Sepharose from whole-cell lysates of transfected HEK293T cells (150 mM NaCl, 50 mM Tris pH 7.5, 0.4% Triton X-100, Benzonase), desthiobiotin elution, immunoblot; MLN4924 before collecting where indicated. Background: Immunoblotting shows a protein as a band on a membrane.

For assay [2], the target named is T2, StrepII-FLAG-tagged FBXO38 lacking the C-terminus (FBXO38^Δ1091-1188) (human) (UniProt Q6PIJ6).
T2 sequence: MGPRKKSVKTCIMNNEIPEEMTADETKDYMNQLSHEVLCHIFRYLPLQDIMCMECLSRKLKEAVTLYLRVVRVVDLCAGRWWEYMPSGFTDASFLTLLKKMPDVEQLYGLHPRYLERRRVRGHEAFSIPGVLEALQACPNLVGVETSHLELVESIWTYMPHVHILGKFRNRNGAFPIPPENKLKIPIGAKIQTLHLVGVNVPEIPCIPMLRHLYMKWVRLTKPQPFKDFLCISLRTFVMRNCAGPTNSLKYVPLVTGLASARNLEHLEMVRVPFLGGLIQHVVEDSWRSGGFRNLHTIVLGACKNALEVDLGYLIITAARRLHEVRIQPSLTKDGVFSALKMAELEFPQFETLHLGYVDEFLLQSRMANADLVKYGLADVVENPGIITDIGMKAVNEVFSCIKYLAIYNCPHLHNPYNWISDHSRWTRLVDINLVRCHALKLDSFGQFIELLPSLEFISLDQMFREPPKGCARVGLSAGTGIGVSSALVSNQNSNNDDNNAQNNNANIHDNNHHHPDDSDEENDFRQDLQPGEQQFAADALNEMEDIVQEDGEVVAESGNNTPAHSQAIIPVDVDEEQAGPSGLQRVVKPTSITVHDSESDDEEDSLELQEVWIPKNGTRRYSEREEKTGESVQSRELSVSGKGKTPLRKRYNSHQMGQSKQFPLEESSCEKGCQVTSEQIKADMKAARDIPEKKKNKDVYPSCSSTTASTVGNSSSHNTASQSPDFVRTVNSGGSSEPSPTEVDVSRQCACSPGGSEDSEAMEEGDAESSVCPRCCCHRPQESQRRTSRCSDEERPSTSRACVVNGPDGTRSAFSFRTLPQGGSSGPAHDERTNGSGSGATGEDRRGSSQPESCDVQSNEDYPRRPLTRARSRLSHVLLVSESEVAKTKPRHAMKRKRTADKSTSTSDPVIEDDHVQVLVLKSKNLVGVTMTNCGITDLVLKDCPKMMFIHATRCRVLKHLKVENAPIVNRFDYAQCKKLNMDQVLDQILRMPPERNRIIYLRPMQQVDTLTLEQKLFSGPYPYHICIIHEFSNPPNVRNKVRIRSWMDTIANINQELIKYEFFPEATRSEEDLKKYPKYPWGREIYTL
Described as above.

The target in assay [3] is T3, StrepII-FLAG-tagged ZXDA (SF-ZXDA), inducibly expressed in HeLa cells (human) (UniProt P98168).
T3 sequence: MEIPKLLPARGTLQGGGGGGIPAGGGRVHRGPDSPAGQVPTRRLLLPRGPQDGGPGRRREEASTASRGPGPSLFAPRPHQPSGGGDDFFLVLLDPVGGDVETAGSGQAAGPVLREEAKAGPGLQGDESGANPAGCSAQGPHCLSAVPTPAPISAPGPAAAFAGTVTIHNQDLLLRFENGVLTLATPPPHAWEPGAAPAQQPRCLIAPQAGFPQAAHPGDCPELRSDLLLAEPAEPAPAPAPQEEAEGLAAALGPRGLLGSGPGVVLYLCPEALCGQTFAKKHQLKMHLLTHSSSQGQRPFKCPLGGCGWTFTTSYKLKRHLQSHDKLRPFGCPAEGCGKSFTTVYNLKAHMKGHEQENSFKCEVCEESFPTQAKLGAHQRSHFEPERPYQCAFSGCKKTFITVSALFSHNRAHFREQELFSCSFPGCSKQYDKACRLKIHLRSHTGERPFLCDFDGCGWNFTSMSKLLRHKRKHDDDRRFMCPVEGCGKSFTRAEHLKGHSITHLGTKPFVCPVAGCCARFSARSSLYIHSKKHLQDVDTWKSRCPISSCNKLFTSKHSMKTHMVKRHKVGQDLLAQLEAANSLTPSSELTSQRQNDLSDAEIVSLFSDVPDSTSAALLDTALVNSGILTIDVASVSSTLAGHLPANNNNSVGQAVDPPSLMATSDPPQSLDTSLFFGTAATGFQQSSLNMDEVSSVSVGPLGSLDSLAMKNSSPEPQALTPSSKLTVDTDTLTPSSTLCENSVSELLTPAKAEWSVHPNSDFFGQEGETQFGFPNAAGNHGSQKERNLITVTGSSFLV
The experiment in a line: co-IP; SF-ZXDA and mutants, doxycycline-induced (24 h) in HeLa cells, affinity-purified on Strep-Tactin resin from whole-cell lysates, immunoblot.

Assay [4] has as its target T4, eGFP-tagged CENP-B (eGFP-CENP-B), stably expressed in HeLa cells (UniProt P07199).
T4 sequence: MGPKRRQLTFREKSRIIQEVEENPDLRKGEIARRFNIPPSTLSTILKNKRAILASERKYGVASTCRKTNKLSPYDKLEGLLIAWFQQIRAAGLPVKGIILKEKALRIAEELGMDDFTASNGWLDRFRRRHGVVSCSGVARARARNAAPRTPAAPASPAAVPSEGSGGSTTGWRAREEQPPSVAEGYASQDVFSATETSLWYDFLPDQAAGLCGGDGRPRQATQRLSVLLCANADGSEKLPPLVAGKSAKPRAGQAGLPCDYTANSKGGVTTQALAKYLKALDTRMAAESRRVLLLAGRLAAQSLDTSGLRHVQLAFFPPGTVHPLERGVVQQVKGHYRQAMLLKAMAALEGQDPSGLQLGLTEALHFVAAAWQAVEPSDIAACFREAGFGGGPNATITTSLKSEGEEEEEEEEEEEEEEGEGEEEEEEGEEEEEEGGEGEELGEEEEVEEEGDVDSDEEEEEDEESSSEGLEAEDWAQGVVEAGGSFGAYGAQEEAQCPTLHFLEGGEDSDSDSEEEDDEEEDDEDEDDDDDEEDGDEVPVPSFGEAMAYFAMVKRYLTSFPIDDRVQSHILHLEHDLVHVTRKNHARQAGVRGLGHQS
The experiment in a line: co-IP; eGFP-CENP-B immunoprecipitated with GFP-Trap magnetic beads from the soluble protein fraction of HeLa cells, with or without MLN4924 for 6 h; parental cells as control.

In the case of “USP7 deubiquitinase, endogenous in HEK293T cells (from UniProt Q93009 1-1102) (enzyme)”, the binding entry in assay [1] and in assay [2] was “binds” each time.

B1: FBXO38, endogenous in HeLa cells (protein, UniProt Q6PIJ6 1-1188)
chain: MGPRKKSVKTCIMNNEIPEEMTADETKDYMNQLSHEVLCHIFRYLPLQDIMCMECLSRKLKEAVTLYLRVVRVVDLCAGRWWEYMPSGFTDASFLTLLKKMPDVEQLYGLHPRYLERRRVRGHEAFSIPGVLEALQACPNLVGVETSHLELVESIWTYMPHVHILGKFRNRNGAFPIPPENKLKIPIGAKIQTLHLVGVNVPEIPCIPMLRHLYMKWVRLTKPQPFKDFLCISLRTFVMRNCAGPTNSLKYVPLVTGLASARNLEHLEMVRVPFLGGLIQHVVEDSWRSGGFRNLHTIVLGACKNALEVDLGYLIITAARRLHEVRIQPSLTKDGVFSALKMAELEFPQFETLHLGYVDEFLLQSRMANADLVKYGLADVVENPGIITDIGMKAVNEVFSCIKYLAIYNCPHLHNPYNWISDHSRWTRLVDINLVRCHALKLDSFGQFIELLPSLEFISLDQMFREPPKGCARVGLSAGTGIGVSSALVSNQNSNNDDNNAQNNNANIHDNNHHHPDDSDEENDFRQDLQPGEQQFAADALNEMEDIVQEDGEVVAESGNNTPAHSQAIIPVDVDEEQAGPSGLQRVVKPTSITVHDSESDDEEDSLELQEVWIPKNGTRRYSEREEKTGESVQSRELSVSGKGKTPLRKRYNSHQMGQSKQFPLEESSCEKGCQVTSEQIKADMKAARDIPEKKKNKDVYPSCSSTTASTVGNSSSHNTASQSPDFVRTVNSGGSSEPSPTEVDVSRQCACSPGGSEDSEAMEEGDAESSVCPRCCCHRPQESQRRTSRCSDEERPSTSRACVVNGPDGTRSAFSFRTLPQGGSSGPAHDERTNGSGSGATGEDRRGSSQPESCDVQSNEDYPRRPLTRARSRLSHVLLVSESEVAKTKPRHAMKRKRTADKSTSTSDPVIEDDHVQVLVLKSKNLVGVTMTNCGITDLVLKDCPKMMFIHATRCRVLKHLKVENAPIVNRFDYAQCKKLNMDQVLDQILRMPPERNRIIYLRPMQQVDTLTLEQKLFSGPYPYHICIIHEFSNPPNVRNKVRIRSWMDTIANINQELIKYEFFPEATRSEEDLKKYPKYPWGREIYTLEGVVDGAPYSMISDFPWLRSLRAAEPNSFARYDFEDDEESTIYAPRRKGQLSADICMETIGEEISEMRQMKKGVFQRVVAIFIHYCDVNGEPVEDDYI
B1: the binding entry was “binds” in assay [3] and “no binding” in assay [4].

The values are drawn from publication PMC9260856.
